Results on 110 molecules are retold here after PubChem BioAssay AID1240 (Sanford-Burnham Center for Chemical Genomics, 2008).

In all, about 50,000 compounds went through this assay and about 800 (1.6%) showed an effect of 50% or more. This is one part of the list.

The target in this assay is Bcl-2-like protein 10 (Homo sapiens) (UniProt Q9HD36). Nature of the assay: Phenotype converters, Bcl-B/TR3 peptide binding displacement, primary biochemical FP (AID 1240).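 Further: 0% = Bcl-B with tracer peptide and DMSO and 100% = tracer peptide lacking Bcl-B.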 The note with it: GST-Bcl-B / FITC-TR3 peptide fluorescence polarization; stronger effect = higher value; compound at 3.75 mg/L.
UniProt Q9HD36, sequence (Q9HD36 whole entry, looked up): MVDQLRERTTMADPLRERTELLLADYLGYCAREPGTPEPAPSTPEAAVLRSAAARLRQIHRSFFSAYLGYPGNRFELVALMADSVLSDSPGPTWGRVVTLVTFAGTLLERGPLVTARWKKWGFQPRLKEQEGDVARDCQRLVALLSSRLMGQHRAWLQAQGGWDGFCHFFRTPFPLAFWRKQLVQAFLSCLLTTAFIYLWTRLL
For `Cc1ccc2c(c1)N(C(=O)COc1nc3ccccc3s1)C(C)(C)c1ssc(=S)c1-2`, the displacement is -4.1%.

For the molecule `O=C1C2CCCCC2C(=O)N1CC(=O)N1c2ccccc2Sc2ccc(C(F)(F)F)cc21` (stereo not given), the displacement is -14.3%.

With `O=C(Nc1ccc2oc(-c3cccnc3)nc2c1)c1cccc(OCc2ccccc2)c1`, the displacement was 11%.

On to `O=C(Nc1ccc(Cl)cn1)c1ccc(-c2ccc([N+](=O)[O-])cc2)o1`, for which the displacement turned out to be 13.9%.

As to `COc1ccc(NC(=O)c2cccc([N+](=O)[O-])c2C)cc1Cl`, the displacement is -2.7%.

On to `O=C(NCc1ccc2c(c1)OCO2)C1CCCC1`, for which the displacement is -9.7%.

Take `CCC(C(=O)Nc1sc2c(c1C(=O)OC)CCC(C)C2)c1ccccc1` (stereo not given): the displacement is 7.2%.

For the molecule `CCOC(=O)Nc1nc(C)c(C(C)=O)s1`, the displacement is -1.5%.

On to `COC(=O)c1c(C)oc2ccc(OS(C)(=O)=O)cc12`, for which the displacement was 11.7%.

Regarding `CCOCCOC(=O)c1ccc(NC(=O)c2cccc(C)c2)cc1`, the displacement was -12.6%.

On to `N/C(=N\S(=O)(=O)c1ccc(Cl)cc1)c1ccc(F)cc1`, for which the displacement came out at 8.3%.

`CCN(CC)c1ccc(/C=C2N=C(/C=C/c3ccccc3)OC/2=O)cc1`: the displacement was -28%.

In the case of `COc1ccc(/C=N/Nc2cc(N3CCOCC3)ncn2)cc1`, the displacement was -0.6%.

In the case of `FC(F)(F)c1cccc(NC(=S)NCc2ccc(Cl)cc2)c1`, the displacement is -5.2%.

As to `O=C(COc1ccccc1[N+](=O)[O-])Nc1ccc2oc(-c3cccc4ccccc34)nc2c1`, the displacement worked out at 56.9%.

On to `CCOc1ccc(C(=O)Nc2ccc(C)cc2[N+](=O)[O-])cc1Br`, for which the displacement is 35.7%.

Regarding `O=C(N/C(=C/c1cccnc1)C(=O)N1CCCCCC1)c1cccc(Br)c1`, the displacement is -8.9%.

As to `O/N=C/c1ccc(OCC(O)Cn2c3ccccc3c3ccccc32)cc1` (stereo not given), the displacement was found to be 17.4%.

For the molecule `CCc1cccc(C)c1NS(=O)(=O)c1ccccc1`, the displacement came out at 15.5%.

Consider `Cc1cc([N+](=O)[O-])ccc1NCc1cc(F)ccc1F`, for which the displacement amounted to 7.1%.

For `Cc1ccc(Oc2nc(-c3ccncc3)nc3ccccc23)cc1`, the displacement is -5%.

On to `Cc1c(NC(=O)c2cccc3c2C(=O)c2ccccc2-3)c(=O)n(-c2ccccc2)n1C`, for which the displacement stood at 2.1%.

Consider `COc1cc(C2NC(=O)N(C)C(C)=C2C(=O)OC2CCCC2)cc(Br)c1O` (stereo not given), for which the displacement turned out to be 7.7%.

For `COc1ccc(N2C(=O)CC(NCCCc3ccccc3)C2=O)cc1` (stereo not given), the displacement is -4.8%.

Consider `S=C(NCCN1CCOCC1)Nc1cccc(Cl)c1`, for which the displacement is -6.7%.

`Cc1ccc(N(CC(=O)NCC(C)C)S(=O)(=O)c2ccc(F)cc2)cc1`: the displacement was -9.3%.

On to `CCOC(=O)c1ccc(-c2ccc(/C=C3/C(=O)NN(c4cccc(Cl)c4)C3=O)o2)cc1`, for which the displacement was -1.9%.

In the case of `Cc1cccc(CC2S/C(=N\N=C\c3ccc(O)cc3)NC2=O)c1` (stereo not given), the displacement is -15.4%.

Turning to `CC(=O)Oc1ccccc1N1C(=O)c2cccc([N+](=O)[O-])c2C1=O`, the displacement came out at 2.1%.

Take `O=C(Nc1cccc(Cl)c1Cl)c1cc2nc(-c3ccc([N+](=O)[O-])cc3)cc(C(F)(F)F)n2n1`: the displacement came out at 14.6%.

For `Cc1ccc(CN2CCN(N=Cc3cccc(Cl)c3)CC2)c(C)c1`, the displacement was 10.3%.

On to `CN1CCN(Cn2c(O)c(N=NC(=O)CO/N=C/c3ccccc3Cl)c3ccccc32)CC1`, for which the displacement is -9.3%.

With `O=[N+]([O-])c1cccc(Cl)c1N1CCN(CCO)CC1`, the displacement came to 89.3%.

In the case of `CCOc1cc(/C=C2/N=C(c3ccc(NC(C)=O)cc3)OC2=O)ccc1OCc1ccccc1`, the displacement is -1.3%.

On to `Cc1ccc(Cl)cc1N(Cc1ccc(C(=O)NN=C2CCN(C)CC2)cc1)S(=O)(=O)c1ccccc1`, for which the displacement was -24.8%.

For the molecule `COc1cc(NC(=O)c2cc(I)ccc2Cl)ccc1NC(=O)c1ccco1`, the displacement was -5.6%.

For `S=C(c1ccc(-c2ccc(Br)cc2)o1)N1CCCCC1`, the displacement was -3.2%.

For `CCC(=O)c1ccc(N2CCN(C(=O)c3ccccc3F)CC2)c(F)c1`, the displacement is -15.1%.

Take `CC(NC(=O)c1ccc(I)cc1)c1ccccc1` (stereo not given): the displacement is -11%.

`CCCCn1c(NC(=O)c2ccc(Cl)cc2)nc2ccccc21`: the displacement was 13.6%.

As to `C=CCOc1c(Br)cc(/C=C/C(=O)O)cc1OC`, the displacement was -8%.

For the molecule `O=C(Nc1ccc(Br)cn1)c1cccc(F)c1`, the displacement is -1.8%.

For the molecule `Cn1c(/N=C/c2ccc3c(c2)OCO3)nc2ccccc21`, the displacement worked out at 2.7%.

With `O=C(NC1CCS(=O)(=O)C1)/C(=C\c1ccccc1)NC(=O)c1ccc([N+](=O)[O-])cc1` (stereo not given), the displacement was -2.7%.

Turning to `COc1ccc(CN2CCN(C(=O)c3ccco3)CC2)cc1Br`, the displacement is -11.3%.

On to `CN(Cc1ccccc1)Cn1[nH]c(=O)ccc1=O`, for which the displacement was 14.7%.

In the case of `COc1ccc(/C=C/C(=O)Nc2scc(-c3ccc(Br)cc3)c2C(=O)O)cc1`, the displacement was -6%.

As for `Cn1cccc1CN1CCN(C(=O)c2cccc(Cl)c2)CC1`, the displacement is -2.2%.

On to `Cc1ccc(NC(=O)CN(c2ccccc2)S(=O)(=O)c2ccccc2[N+](=O)[O-])cc1C`, for which the displacement was found to be 9.8%.

On to `COC(=O)c1ccc(CSc2nc3ccccc3s2)cc1`, for which the displacement turned out to be 9.5%.

Turning to `Cc1ccc(-c2noc(-c3ccc(Cl)cc3Cl)n2)cc1`, the displacement worked out at 21.7%.

In the case of `CCOC(=O)C(C#N)=C1CCCCCC1`, the displacement stood at 23.8%.

Regarding `C(=NC1=NN(c2ccccc2)CC1)N1CCOCC1`, the displacement came out at 7%.

Consider `NC1=NC(=O)C(Cc2cccc(C(F)(F)F)c2)S1` (stereo not given), for which the displacement is -1.4%.

Turning to `CSc1nc2ccc(NC(=O)c3ccc(Br)cc3F)cc2s1`, the displacement was -14.2%.

Consider `C=CCN(CC=C)CC(O)CN1C(=O)NC(C)(C)C1=O` (stereo not given), for which the displacement worked out at 4.3%.

With `COc1ccc(OCC(=O)Nc2ccc(-c3nc4ccc(C)cc4s3)cc2)cc1`, the displacement was -9.7%.

Consider `CCC(=O)c1ccc(OC(=O)c2cccc(C)c2)cc1`, for which the displacement worked out at 1.3%.

For the molecule `Cc1ccc(C)n1Cc1ccc(C(=O)O)cc1`, the displacement turned out to be 66.4%.

Turning to `O=C(Nc1cccnc1)c1cccc(C(=O)Nc2cccnc2)n1`, the displacement was -7.2%.

For the molecule `O=C(O)COc1ccc(Br)cc1/C=N/NC(=O)/C(=C/c1ccccc1)NC(=O)c1ccccc1`, the displacement is -0.9%.

As for `Cc1ccc(N2CCN(/N=C\c3ccccc3OCC(=O)O)CC2)cc1`, the displacement was -5.3%.

For `Cc1cc(Cl)ccc1OC(C)C(=O)Nc1cccc(Cl)c1` (stereo not given), the displacement was 2.6%.

With `Cc1cc(Cl)ccc1OCCCC(=O)Nc1cccc(Br)c1`, the displacement was -1.9%.

In the case of `O=C(NN=C1CCCCC1)c1cccnc1`, the displacement is 3.4%.

Consider `Cc1ccc(C(=O)N/C(=C/c2cccnc2)C(=O)N2CCCC2)cc1`, for which the displacement is -8.9%.

As to `CC(C)c1ccc(NC(=O)C(=O)NCC2CCNCC2)cc1`, the displacement came to 3.4%.

As to `O=C(Nc1ccc(Cl)cc1Cl)c1nc2nc(-c3ccccc3)cc(C(F)(F)F)n2n1`, the displacement is -6.7%.

Take `O=[N+]([O-])c1ccccc1CN1CCN(Cc2cc(Br)ccc2O)CC1`: the displacement turned out to be 7.1%.

`CC(=O)NNC(=O)c1ccccc1[N+](=O)[O-]`: the displacement is 0.3%.

In the case of `Cc1ccc(C(=O)Nc2c(C(C)C)cccc2C(C)C)cc1[N+](=O)[O-]`, the displacement is -0.7%.

On to `CCC(Oc1ccccc1)C(=O)Nc1cc([N+](=O)[O-])ccc1C` (stereo not given), for which the displacement amounted to 2.1%.

Turning to `CCOC(=O)c1c(-c2ccc(C)cc2)csc1NC(=O)CCCC(=O)O`, the displacement stood at 6.1%.

On to `CC(C)COc1ccc(C(=O)Nc2ccc([N+](=O)[O-])cc2Cl)cc1`, for which the displacement is -9.1%.

As to `Cc1cc(C)c2c(c1)=C(c1sc(=S)[nH]c1O)C(=O)N=2`, the displacement turned out to be 15%.

In the case of `CC(C)(C)NC(=O)c1cc(NC(=O)Cc2ccccc2)cc(NC(=O)Cc2ccccc2)c1`, the displacement is -2.2%.

Turning to `Cc1c(OCC(=O)OC(C)(C)C)ccc2c(-c3ccccc3)cc(=O)oc12`, the displacement amounted to 10.7%.

As for `CC(C)OP(=O)(OC(C)C)C(Nc1ccc(Br)cc1)c1ccc(O)cc1` (stereo not given), the displacement is -13.8%.

Consider `CCN(CC)c1ccc(N2C(=O)/C(=C/c3ccc(OC)cc3)SC2=S)cc1`, for which the displacement is -13.1%.

For the molecule `CCc1cc(=O)oc2cc(OC)ccc12`, the displacement is -3.9%.

With `CC1=CC(C)(C)N(C(=S)NC(=O)c2ccccc2)c2ccccc21`, the displacement stood at 5.2%.

`Cc1ccc(NC(=O)C2CC(=O)N(c3cc(C)ccc3C)C2)cc1` (stereo not given): the displacement was -9.3%.

Take `COc1ccc(-c2cc(-c3ccc(Cl)cc3)c(C#N)c(N)n2)cc1`: the displacement came to 6.4%.

In the case of `C=CCN1C(=O)/C(=C\c2cn(CCOc3cccc(OC)c3)c3ccccc23)SC1=S`, the displacement worked out at 91.7%.

Regarding `O=C(O)C1C2CCC(C2)C1C(=O)Nc1nc(-c2ccc(F)cc2F)cs1` (stereo not given), the displacement amounted to 0.3%.

Turning to `COc1ccc(NC(=O)c2cc([N+](=O)[O-])ccc2Cl)c(OC)c1`, the displacement is 15.9%.

Take `CCc1cc2c(=O)c(-c3nc4ccccc4s3)coc2c(CN2CCOCC2)c1O`: the displacement worked out at 1%.

Turning to `O=C(c1cc(Cl)ccc1Cl)n1nnc2ccccc21`, the displacement was found to be 11.9%.

For the molecule `O=[N+]([O-])c1ccccc1S(=O)(=O)Nc1ccc(Cl)c(C(F)(F)F)c1`, the displacement is 4.1%.

In the case of `COc1ccc2c(=O)c(Oc3ccc(C(C)(C)C)cc3)coc2c1`, the displacement is 11.4%.

`FC(F)(F)c1ccccc1CN1CCN(Cc2ccncc2)CC1`: the displacement was -6%.

In the case of `CCOc1cc(C=O)ccc1OCc1ccccc1`, the displacement came to 11.6%.

In the case of `O=S1(=O)CCC(N2CCCCC2)C1` (stereo not given), the displacement was 3.2%.

In the case of `CCc1cc2c(N3CCN(Cc4ccc(Cl)cc4Cl)CC3)ncnc2s1`, the displacement is 3.8%.

`COc1ccc(C(=O)NNC(=O)c2ccc(OC)cc2OC)cc1`: the displacement was -5%.

As for `Cc1cc(C)nc(NS(=O)(=O)c2ccc(NC(=O)COc3ccc4ccccc4c3)cc2)n1`, the displacement was 10.9%.

Turning to `Cn1c2ccccc2c2cc(C3Nc4ccccc4C(=O)N3Cc3ccco3)ccc21` (stereo not given), the displacement was 10.3%.

Consider `COC(=O)c1sc(NC(=O)C2CCCCC2)c(C#N)c1C`, for which the displacement was -3%.

In the case of `COc1cc(/C=N\NC(=O)c2ccc(Br)cc2)ccc1OC(=O)c1cccc2ccccc12`, the displacement is 5.3%.

In the case of `Cc1ccc(/C=C2\NC(=O)c3ccccc3C2=O)cc1`, the displacement was found to be 18.4%.

For the molecule `CCOc1ccccc1OCCCCN1CCCCC1`, the displacement amounted to 7%.

With `Cc1cccc(C(=O)Nc2sc3c(c2C(=O)O)CCC3)c1`, the displacement was -3.6%.

As for `C/C(=N\N=C1\NC(=O)C(CC(=O)Nc2ccc(Cl)cc2Cl)S1)c1ccc(F)cc1` (stereo not given), the displacement was determined as 10.5%.

For the molecule `COc1ccc(NC(=O)CN(c2cccc([N+](=O)[O-])c2)S(=O)(=O)c2ccccc2)c(OC)c1`, the displacement is 11.6%.

As for `CCOc1ccc(C(=O)Nc2ccc(O)c(-c3nc4ccccc4s3)c2)cc1Br`, the displacement worked out at 12.2%.

On to `Cc1ccc(CNC(=O)C(=O)Nc2ccc(F)cc2)cc1`, for which the displacement is -5.3%.

Regarding `Cc1cccc2c1nc1s/c(=C\c3cc4c(cc3Cl)OCO4)c(=O)n12`, the displacement worked out at 46%.

Regarding `O=C(O)CCN1C(=O)/C(=C\C(Cl)=C/c2ccc([N+](=O)[O-])cc2)SC1=S`, the displacement came to 14.6%.

With `Cc1nnc(SCC(=O)Nc2ccccc2[N+](=O)[O-])[nH]c1=O`, the displacement stood at 16.4%.

As to `O=c1nc2s/c(=C\c3cn(-c4ccccc4)nc3-c3cccc([N+](=O)[O-])c3)c(=O)n2nc1Cc1ccccc1`, the displacement amounted to 47.2%.
